Measurements as given in the supplement of paper PMC4967469.

Legend:
Assay in all cases: Viability of human cancer cell lines after 72 h of drug (GDSC screen)
Parthenolide = compound: C=C1C(=O)O[C@H]2[C@H]1CC/C(C)=C/CC[C@@]1(C)O[C@@H]21 [Parthenolide]; details: top dose 5 µM
Experimental: (§1)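 Human cancer cell lines in 384-well plates, medium with 10% serum, drug for 72 h over a 256-fold dose range (nine 2-fold or five 4-fold steps up to the top dose). Adherent lines were fixed and stained with the nucleic acid dye Syto60, suspension lines read with resazurin; signal relative to control wells, capped at 0 and 100%. One two-parameter sigmoid per drug and line, fitted in a mixed model over all curves with the slope shared within a line.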

PAC-1 = compound: C=CCc1cccc(/C=N/NC(=O)CN2CCN(Cc3ccccc3)CC2)c1O [PAC-1]; details: top dose 2.56 µM
Experimental: as §1

KIN001-135 = compound: COc1cc2ncn(-c3cc(OCc4ccccc4S(C)(=O)=O)c(C#N)s3)c2cc1OC [KIN001-135]; details: top dose 5 µM; top dose inferred
Experimental: as §1

BMS-708163 = compound: NC(=O)[C@@H](CCC(F)(F)F)N(Cc1ccc(-c2ncon2)cc1F)S(=O)(=O)c1ccc(Cl)cc1 [BMS-708163]; details: top dose 5 µM; screen: GDSC drug entry 1072; top dose inferred
Experimental: as §1

| Cell Line | AUC (Parthenolide) | IC50 (Parthenolide) [µM] | AUC (PAC-1) | IC50 (PAC-1) [nM] | AUC (KIN001-135) | IC50 (KIN001-135) [µM] | AUC (BMS-708163) | IC50 (BMS-708163) [µM] |
| --- | --- | --- | --- | --- | --- | --- | --- | --- |
| JJN-3 (haematopoietic neoplasm, suspension) | 0.846 | 2.72 | 0.99 | > 2560 | 0.992 | > 5 | 0.988 | > 5 |
| NB(TU)1-10 (neuroblastoma, adherent) | 0.992 | > 5 | 0.818 | 1200 | 0.987 | > 5 | 0.993 | > 5 |
| NCI-H345 (small cell lung carcinoma, suspension) | 0.958 | > 5 | 0.987 | > 2560 | 0.988 | > 5 | 0.99 | > 5 |
| DMS-79 (small cell lung carcinoma, suspension) | 0.987 | > 5 | 0.972 | > 2560 | 0.97 | > 5 | 0.987 | > 5 |
| ES7 (Ewing sarcoma, adherent) | 0.983 | > 5 | 0.87 | 2490 | 0.983 | > 5 | 0.928 | > 5 |
| NKM-1 (acute myeloid leukaemia, suspension) | 0.942 | > 5 | 0.786 | 1140 | 0.984 | > 5 | 0.984 | > 5 |
| TC-71 (Ewing sarcoma, adherent) | 0.988 | > 5 | 0.992 | > 2560 | 0.989 | > 5 | 0.992 | > 5 |
| SK-N-DZ (neuroblastoma, adherent) | 0.878 | 4.99 | 0.976 | > 2560 | 0.988 | > 5 | 0.978 | > 5 |
| NCI-H847 (small cell lung carcinoma, adherent) | 0.933 | > 5 | 0.951 | > 2560 | 0.977 | > 5 | 0.991 | > 5 |
| KARPAS-231 (B-cell leukaemia, suspension) | 0.81 | 1.92 | 0.848 | 1280 | 0.989 | > 5 | 0.993 | > 5 |
| SF268 (glioma, adherent) | 0.921 | > 5 | 0.905 | > 2560 | 0.984 | > 5 | 0.96 | > 5 |
| TE-5 (oesophagus, adherent) | 0.878 | > 5 | 0.982 | > 2560 | 0.983 | > 5 | 0.982 | > 5 |
| OCI-AML2 (acute myeloid leukaemia, suspension) | 0.917 | 4.05 | 0.959 | > 2560 | 0.995 | > 5 | 0.993 | > 5 |
| JAR (urogenital system, adherent) | 0.988 | > 5 | 0.985 | > 2560 | 0.976 | > 5 | 0.978 | > 5 |

A lower IC50 marks a more sensitive line; where the fit passes the top or lowest dose, that dose stands as a limit. For AUC the same curve is integrated over the 256-fold range of doses and scaled to a fraction; values near 1 show little effect. For some of these results: The top dose, if marked as inferred, was calculated from the reported fits. For some of these results: An entry number marks a drug with two screens in the source, which often give different values.
